Experimental data reported in publication PMC4336329 (PLoS ONE, 2015).
Among all 310,000 compounds or so, about 14,000 (4.5%) showed an effect of 50% or more. The effect is printed as a negative number. Some of the results follow.

Biological target: human ether-à-go-go-related gene (hERG) potassium channel (human, UniProt Q12809)
Test: primary screen, population patch clamp on CHO cells stably expressing hERG
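Further: peak tail current of the secondary pulse compared with the same well before compound.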

human ether-à-go-go-related gene (hERG) potassium channel, sequence (Q12809 whole entry, looked up): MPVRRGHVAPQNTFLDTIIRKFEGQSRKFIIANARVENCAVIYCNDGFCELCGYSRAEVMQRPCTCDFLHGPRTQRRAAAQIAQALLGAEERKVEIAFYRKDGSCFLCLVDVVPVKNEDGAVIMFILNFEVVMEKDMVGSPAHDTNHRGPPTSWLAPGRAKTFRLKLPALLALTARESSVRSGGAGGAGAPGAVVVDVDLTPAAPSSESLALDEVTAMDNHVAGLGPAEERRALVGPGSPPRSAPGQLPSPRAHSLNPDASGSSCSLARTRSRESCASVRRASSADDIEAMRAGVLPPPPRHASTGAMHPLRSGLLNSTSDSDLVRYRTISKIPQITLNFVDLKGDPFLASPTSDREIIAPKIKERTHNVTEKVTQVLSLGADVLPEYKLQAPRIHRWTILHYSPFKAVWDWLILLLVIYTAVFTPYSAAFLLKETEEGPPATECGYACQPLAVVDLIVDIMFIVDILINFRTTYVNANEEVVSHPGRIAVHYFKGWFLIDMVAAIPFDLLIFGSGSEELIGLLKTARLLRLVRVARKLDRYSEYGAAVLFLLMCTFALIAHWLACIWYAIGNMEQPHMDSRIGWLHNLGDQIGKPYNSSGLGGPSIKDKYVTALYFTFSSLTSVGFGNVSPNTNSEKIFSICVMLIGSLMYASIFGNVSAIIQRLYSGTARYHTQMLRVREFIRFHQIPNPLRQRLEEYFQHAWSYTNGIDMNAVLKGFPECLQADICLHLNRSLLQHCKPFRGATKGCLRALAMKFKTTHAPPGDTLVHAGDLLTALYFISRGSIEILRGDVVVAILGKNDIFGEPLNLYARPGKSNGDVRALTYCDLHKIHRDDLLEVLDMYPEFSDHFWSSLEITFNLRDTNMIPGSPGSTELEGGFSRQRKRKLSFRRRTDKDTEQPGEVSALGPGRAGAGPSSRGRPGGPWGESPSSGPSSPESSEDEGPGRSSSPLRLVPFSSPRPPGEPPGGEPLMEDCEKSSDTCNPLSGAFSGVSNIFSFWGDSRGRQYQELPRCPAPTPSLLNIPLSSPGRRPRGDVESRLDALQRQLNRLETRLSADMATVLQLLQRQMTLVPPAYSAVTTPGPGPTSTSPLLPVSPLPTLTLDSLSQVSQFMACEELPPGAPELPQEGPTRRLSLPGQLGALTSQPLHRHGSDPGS

Row | Compound | hERG current change (%, negative = inhibition) at 10uM [%]
1 | COc1cccc(N=Cc2c(O)c3ccccc3oc2=O)c1 | 25
2 | COC(=O)c1ccccc1NC(=O)C1CCN(S(=O)(=O)c2cc(C)ccc2OC)CC1 | -17.8
3 | Cc1cc(Cl)ccc1OCCCC(=O)NN | 13.8
4 | COc1ccc(OC)c(Nc2nc(NCCC(C)C)nc(N)c2[N+](=O)[O-])c1 | 8.43
5 | CCN(CC)c1ccc(C=C2C(=O)NC(=S)NC2=O)cc1 | 23.4
6 | CC(=O)Nc1ccc(S(=O)(=O)Nc2ccc3c(c2)n(C)c(=O)n3C)c(C)c1 | 13
7 | COC(=O)C(Cc1cnc(Cl)s1)(C(=O)OC)c1ccccc1[N+](=O)[O-] | 5.44
8 | Clc1ccc(C2[C@H]3CN(Cc4cccnc4)[C@H](c4ccccc4)C34CC2(c2cccnc2)C4)cn1 (stereo partly drawn) | -15.6
9 | O=C(Nc1ccc(Cl)cc1)N1CCN(c2ccccc2)CC1 | -5.5
10 | Cc1c(C(c2ccc(N(C)C)cc2)c2c(C)n(C)n(-c3ccccc3)c2=O)c(=O)n(-c2ccccc2)n1C | 14.4
11 | COc1ccc(N2CCN(C(=O)COC(=O)COc3cc(C)cc(C)c3)CC2)cc1 | -45.5
12 | Cc1sc2nc(CSc3ccccc3)nc(N3CCC(C(N)=O)CC3)c2c1C | -8.46
13 | Cc1cccc(NC(=O)CNC(=O)N2CC(=O)Nc3ccccc32)c1C | 32.9
14 | CCNC(=O)CC1C(=O)N(c2ccccc2)C(=O)N1CCOC (stereo not drawn) | 21.4
15 | O=S(=O)(c1ccc2nc(N3CCN(c4ccc(F)cc4)CC3)ccc2c1)N1CCCCC1 | 0.314
16 | O=C(O)C1CCN(c2ccc([N+](=O)[O-])cc2[N+](=O)[O-])CC1 | 7.59
17 | O=C(NC(=S)Nc1nc2ccccc2s1)c1ccco1 | 24.1
18 | O=C1c2cccc3cccc(c23)C(=O)N1CCCCCc1n[nH]c(=S)o1 | -5.47
19 | Cc1cnc(NC(=O)c2cccc(S(=O)(=O)N3CCOCC3)c2)s1 | 8.52
20 | O=C(NC1CCCCC1)C(c1ccncc1)N(C(=O)Cc1cccs1)c1ccccc1 (stereo not drawn) | 13.3
21 | CC(C)CC(=O)Nc1cc([N+](=O)[O-])ccc1Cl | -2.59
22 | Cc1ccc(S(=O)(=O)/N=C(\c2ccccc2)N(C)S(=O)(=O)c2ccccc2)cc1 | -12.4

Row | Compound | hERG current change (%, negative = inhibition) at 10uM [%]
23 | COc1cc(C=O)c(Br)cc1OCc1ccc(C)cc1 | 6.13
24 | Cc1cc(Cl)c(S(=O)(=O)Nc2ccccn2)cc1OCC(N)=O | -71.8
25 | CC(Oc1ccc(Br)cc1Br)C(=O)Nc1cccnc1 (stereo not drawn) | 32.4
26 | Cc1cccc(-c2noc(CNC(=O)c3ccc4c(c3)OCO4)n2)c1 | -10.4
27 | O=C(C1CCN(Cc2cn[nH]c2-c2ccc(F)cc2F)CC1)N1CCOCC1 | 8.72
28 | CCCSCCCNC(=O)c1ccc(NC(=O)C2=CSCCO2)cc1 | -14.7
29 | S=C(NC1CC1)N1CCCc2ccccc21 | 9.39
30 | CC(C)OCCCNC(=O)C1CC(=O)N(CCc2ccc(F)cc2)C1 (stereo not drawn) | 3.32
31 | O=C(CSc1nnc(CNC(=O)c2ccc(F)cc2)o1)NCCc1ccccc1 | 1.83
32 | Cc1cccc(NC(=S)NC2CC3CCCC(C2)N3Cc2ccco2)c1 (stereo not drawn) | -21.7
33 | Fc1cc(F)c2nc(N3CCCC3)sc2c1 | 9.04
34 | COCCCN(C(=O)CSCC(=O)Nc1cccc(C)c1)c1c(N)n(Cc2ccccc2)c(=O)[nH]c1=O | 11.3
35 | O=C(NCc1ccccc1)c1cccc(COc2ccc3c(c2)CCC3)c1 | -28.5
36 | CC(C)C[C@H](NC(=O)C1CC(=O)N(c2ccc3c(c2)OCO3)C1)C(=O)NCc1ccco1 (stereo partly drawn) | -5.38
37 | O=C(NCc1ccccn1)c1ccc(COc2ccc(Cl)cc2)o1 | -15.4
38 | COc1cc(/C=C(/C#N)c2nc3ccccc3[nH]2)ccc1OC(=O)c1ccco1 | -6.24
39 | O=C(COc1ccc(-c2nnco2)cc1)NCc1ccccc1Cl | -6.27
40 | COCCN(C(=O)CSCC(=O)Nc1cccc(C)c1)c1c(N)n(Cc2ccccc2)c(=O)[nH]c1=O | 2.27
41 | Cc1cc(Cl)ccc1OC(C)C(=O)N1CCCN(C(=O)C(C)Oc2ccc(Cl)cc2C)CC1 (stereo not drawn) | -8.3
42 | CC(=O)OCc1cc2cc(C)ccc2[nH]c1=O | 18
43 | Cc1cccc(C)c1OCC(=O)NNC(=S)NC(=O)C1CC1 | 8.5
44 | C=CCN1C(=O)c2ccc(C(=O)NCCc3ccc(OC)c(OC)c3)cc2C1=O | 12.5

Row | Compound | hERG current change (%, negative = inhibition) at 10uM [%]
45 | CCC(=O)c1c[nH]c(C(=O)NCc2ccccc2OC)c1 | -6.15
46 | CCOC(=O)C1CCN(CCCSc2ccc(C)cc2)CC1.Cl | -71
47 | O=C(OCc1cc(=O)n2c(n1)sc1ccccc12)c1ccc(O)cc1O | 2.86
48 | O=C(CNC(=O)[C@@H]1Cc2ccccc2CN1)Nc1ccc2c(c1)OCCO2 | 12.2
49 | O=c1cc(CSc2nnc(-c3cccs3)n2Cc2ccccc2)nc2sc3ccccc3n12 | -53.5
50 | Cc1ccc(SCc2[nH]nc3c2C(c2ccco2)C(C#N)=C(N)O3)cc1 (stereo not drawn) | -0.815
51 | Clc1ccc(Cn2ccnc2)cn1 | 3.44
52 | Cc1ccc2nc(C3CCN(S(=O)(=O)c4ccc5ccccc5c4)CC3)[nH]c2c1 | -3.46
53 | CSc1ccccc1NC(=O)Cn1c([N+](=O)[O-])cnc1C | 3.53
54 | CCN(CC)Cc1c(C(=O)N/N=C/c2cccnc2)nnn1-c1nonc1N | -10.9
55 | CC(C)Sc1nc2c(cnn2-c2ccccc2)c(=O)[nH]1 | 5.88
56 | CC1=CC=CC2=NC(=O)CC(C)(C(=O)N(CC(=O)NC(C)C)C3CCCC3)N12 (stereo not drawn) | 26.3
57 | CC(=O)Nc1ccc(S(=O)(=O)Nc2ccc(Cl)cn2)cc1 | 15.4
58 | CCc1ccc(C2c3[nH]c4ccccc4c3CCN2C(=O)CN2CCN(CC)CC2)cc1 (stereo not drawn) | 12.7
59 | O=C(O)c1cc(NCc2ccccc2C(F)(F)F)ccc1N1CCOCC1 | -26.5
60 | CCOC(=O)C1=C(C)N=c2s/c(=C/c3cccc(OCC(=O)O)c3)c(=O)n2C1c1ccc(F)cc1 (stereo not drawn) | 7.33
61 | CCN(Cc1ccccc1)c1c(C(=O)O)cnc2c1cnn2C | 17.1
62 | CCOC(=O)c1cc(=O)c2c([N+](=O)[O-])ccc(OC)c2o1 | 5.54
63 | Cc1ccc(C(=O)N2CCN(S(=O)(=O)N3CCOCC3)CC2)cc1 | 1.55
64 | Oc1ccccc1N1CCN(c2ccc3ccccc3n2)CC1 | 12.8
65 | COc1ccc(C(=O)N(c2ccc(C)cc2)C2C=CS(=O)(=O)C2)cc1OC (stereo not drawn) | 9.79
66 | Cn1c(=O)c2c(nc(CN3CCN(CCO)CC3)n2Cc2cccc3ccccc23)n(C)c1=O | -5.53

Row | Compound | hERG current change (%, negative = inhibition) at 10uM [%]
67 | Cc1ccc(C(=O)C2COC(=O)C2)cc1 (stereo not drawn) | 9.04
68 | COc1ccc(CCNC(=O)C2CCN(c3nccc(C)n3)CC2)cc1 | 18.5
69 | CCOC(=O)Cc1csc(NC(=O)c2sc3nc4ccc(C)cc4cc3c2N)n1 | -0.972
70 | COc1ccc(CC(=O)OC(C)C(=O)Nc2ccc(Cl)cn2)cc1 (stereo not drawn) | -12.4
71 | CCOc1ccc(C(C(=O)NCCC(C)C)N(CCO)C(=O)c2snc(C(N)=O)c2N)cc1 (stereo not drawn) | -27
72 | COc1ccc(C(O)c2cc(OC)ccc2OP(=O)(N(C)C)N(C)C)cc1 (stereo not drawn) | -2.93
73 | COc1ccc(N2CCN(C(=O)CSc3nnc(-c4cccnc4)n3-c3ccccc3)CC2)cc1 | -27.1
74 | CCCCCCc1cc2cc(S(=O)(=O)c3ccc(F)c(Cl)c3)c(=O)oc2cc1O | 0.372
75 | CSc1nc(Oc2ccc3ccccc3c2)c2sccc2n1 | 1.88
76 | CCN(CC)S(=O)(=O)c1ccc(C(=O)OCC(=O)N2CCN(C(=O)c3ccco3)CC2)cc1 | -37.2
77 | CCC(c1nnc(SCC(=O)NC23CC4CC(CC(C4)C2)C3)o1)N(C)C (stereo not drawn) | 6.71
78 | CC1CN(C(=O)c2ccccc2Sc2ccccc2C#N)CC(C)O1 (stereo not drawn) | 4.5
79 | Cc1occc(=O)c1O | 8.04
80 | O=C(O)c1cccc(N2CCCC2)c1 | -4.74
81 | O=C(/C=C/c1ccco1)NC(=S)Nc1cccc(-c2nc3ccccc3o2)c1 | 13.9
82 | COc1ccccc1C(=O)NC(CCSC)C(=O)NNC(=O)c1csc(N2CCOCC2)n1 (stereo not drawn) | 10.2
83 | CCOc1ccc(C(=O)Nc2cccc(C)n2)cc1 | 0.201
84 | Cc1ccn2c(NC3CCCC3)c(-c3ccccn3)nc2c1 | -17.2
85 | NNC(=O)c1c[nH]c2ccc(OCc3ccccc3)cc12 | 4.59
86 | CC(=O)c1ccc(N2CCN(CC(O)COC(c3ccccc3)c3ccccc3)CC2)cc1 (stereo not drawn) | -66.5
87 | C=CCNC(=O)c1cc2sccc2n1C | 5.7
